± gives the standard deviation. Whole data set: some 3,000 sequences, median “pre-steady-state target cleavage rate” near 0.0079, cut for the highest 2% near 0.2. This is a selection; strong and weak results do not stand in their true shares.

This assay concerns MILI (PIWIL2) piRISC loaded with piRNA #2 (26 nt). The assay can be described thus: pre-steady-state target cleavage rate (min^-1); MIWI and MILI are mouse PIWI proteins and EfPiwi is from a freshwater sponge; tags in brackets are library labels; higher = faster piRNA-guided slicing of the target. The settings on record: guide: piRNA #2 5'p-UUAGGUAACCCAGUAGAUCCAGAGGA; auxiliary factor: 500 nM mouse GTSF1. The protocol:
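Cleave-'n-Seq: a library of target RNAs (target site embedded in constant flanks, ACAGCATTCCGCGTTAGTGATATCCG... 5' flank; DNA-blocked outside the site) at 0.1 nM was incubated with 1 nM active mouse MILI or MIWI piRISC (synthetic 5'-monophosphorylated piRNA guide) with or without 500 nM mouse GTSF1 at 33 °C for 1 min to 16 h. Uncleaved targets were sequenced and normalised to non-target controls, and the pooled three trials were fitted to a burst-and-steady-state model to give the pre-steady-state cleavage rate (min^-1; k3 is constrained to at most 1e-4). Sequence is the target site only; target names encode pairing extent (gX:gY) and contiguous / 1-mismatch / 2-mismatch / bulge geometry. Fits with R² ≤ 0 are excluded.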
For the sequence CUUAAUCUCUGGAUCUACUGGGUUACCUAA, the “pre-steady-state target cleavage rate” value is 0.0853 ± 0.015.

As for CUUAUCCUCUGGAUCUACUGGGGUACCUAA, the “pre-steady-state target cleavage rate” value was 0.0107 ± 0.0053.

Take CUUAAGCUCUGGUACUACUGGGUUACCUAA: the “pre-steady-state target cleavage rate” value came to 0.166 ± 0.051.

With “CUUAAGGAGUGGAUCUACUGGGUUACCUAU [g2:g21:cont:t1U]”, the “pre-steady-state target cleavage rate” value is 0.0492 ± 0.015. Take CUUAACCACUGGAUCUACUGGGUUACGUAA: the “pre-steady-state target cleavage rate” value is 0.0189 ± 0.0069. Turning to CUUAACCUCUGGAUCUACUGGGUUAGCUUA, the “pre-steady-state target cleavage rate” value amounted to 0.106 ± 0.027. The value for CUUAACCUCUGGAUCUACUGGGUUUCGUAA was 0.128 ± 0.044; that for CUUAAGGAGUUGAUCUACUGGGUUACCUAA was 0.00432 ± 0.0026; that for CUUAAGCUCUGGAUCUACAGGGUAACCUAA was 0.0226 ± 0.0075. The value for CUUAUCCACUGGAUCUACUGGGUAACCUAA was 0.0345 ± 0.0086; that for CUUAAGGUCUGGAUCUACUGGGUUCACCUAA was 0.0401 ± 0.013. For CUUAAGGUCUGGUCUACUGGGUUACCUAA the value was 0.00576 ± 0.0047. Consider CUUAAGCUCUGGAACAACUGGGUUACCUAA, for which the “pre-steady-state target cleavage rate” value was 0.0254 ± 0.0096.

For CUUAAGGUGUGGAUCUACUGGGUUACCAAA, the “pre-steady-state target cleavage rate” value is 0.0115 ± 0.0056. For CUUAUCCUCUGGAUCUACACGGUUACCUAA the value was 0.0118 ± 0.0023; for CUUAAGCUCUGGAUGUACUGGGUUACGUAA, 0.0334 ± 0.011; for CUUAACCUCUGGAUCCACUGGGUUACCUAA, 0.0558 ± 0.013. Consider CUUAAGCUCUGCAUCUACUGGGUUAGCUAA, for which the “pre-steady-state target cleavage rate” value turned out to be 0.0651 ± 0.016. Regarding CUUAAGCUCAGGAUCUACUGGGUUACGUAA, the “pre-steady-state target cleavage rate” value worked out at 0.00969 ± 0.0055. The value for CUUAUCCUCCGGAUCUACUGGGUUACCUAA was 0.0892 ± 0.028; that for CUUAUCCUCUGGAUCUACAGCGUUACCUAA was 0.0168 ± 0.0039. Turning to CUUAUCCUCUGGAUCAACUGGGUUACCAAA, the “pre-steady-state target cleavage rate” value is 0.0632 ± 0.013.

Turning to CUUAAGGACUGGAUGUUCUGGGUUACCUAA, the “pre-steady-state target cleavage rate” value worked out at 0.0125 ± 0.011. On to CUUAUCCUCUGGAUCUACUGUGUUACCUAA, for which the “pre-steady-state target cleavage rate” value worked out at 0.0367 ± 0.0067. As to CUUAAGGUCUGGAUCUAGUGGGAUACCUAA, the “pre-steady-state target cleavage rate” value amounted to 0.00834 ± 0.0047. Consider CUUAUCCUCUGGAACUACUGGGAUACCUAA, for which the “pre-steady-state target cleavage rate” value is 0.0433 ± 0.021. Regarding CUUAAGGACUGGAUCUGCUGGGUUACCUAA, the “pre-steady-state target cleavage rate” value was found to be 0.0168 ± 0.012. Take CUUAAGGUCUGCAUCUAGUGGGUUACCUAA: the “pre-steady-state target cleavage rate” value stood at 0.0418 ± 0.012. For CUUAUCCUCUGGAUCUACAGGGAUACCUAA the value was 0.0435 ± 0.011; for CUUAACCUCUGGAUGUACAGGGUUACCUAA, 0.102 ± 0.013. For the sequence CUUAUCCUCUGGAUCUACUGGGUUGCCUAA, the “pre-steady-state target cleavage rate” value came to 0.0855 ± 0.017.

Regarding CUUAAGGACUGGAUCUAGUGGGUUACCAAA, the “pre-steady-state target cleavage rate” value was 0.0168 ± 0.0085. CUUAAGCUCUGGAUCUACUGGGUUAGGUAA: the “pre-steady-state target cleavage rate” value worked out at 0.028 ± 0.012. For CUUAAGCUCUGGAUGUACAGGGUUACCUAA the value was 0.081 ± 0.011; for CUUAAGCUCUGGAUCAACUGGGUUACGUAA, 0.021 ± 0.0077. On to CUUAUCCACUCGAUCUACUGGGUUACCUAA, for which the “pre-steady-state target cleavage rate” value came to 0.15 ± 0.02. With CUUAACCUCUGGAUGUACUGGGUAACCUAA, the “pre-steady-state target cleavage rate” value amounted to 0.0449 ± 0.015. For CUUAAGCUCUGGAUCUAGAGGGUUACCUAA the value was 0.0158 ± 0.0045. In the case of CUUAAGGAGUGGAUCUACAGGGUAACCUAA, the “pre-steady-state target cleavage rate” value amounted to 0.0275 ± 0.0089. The value for CUUAUCCUCAGGAUCUAGUGGGUUACCUAA was 0.0524 ± 0.012; that for CUUAUCCUGUGGUUCUACUGGGUUACCUAA was 0.0695 ± 0.015; that for CUUAUCUUCUGGAUCUACUGGGUUACCUAA was 0.154 ± 0.019. Take CUUAUCCUCUCGAUCAACUGGGUUACCUAA: the “pre-steady-state target cleavage rate” value turned out to be 0.105 ± 0.023. For CUUAUCCUCACGAUCUACUGGGUUACCUAA the value was 0.139 ± 0.031. The value for CUUAAGGUCUGGAUCUAAUGGGUUACCUAA was 0.0668 ± 0.011; that for CUUAAGGUCUGGAUCUACCGGGUUACCUAA was 0.0239 ± 0.006. The value for CUUAAGGAGUGGAUCUACACGGUUACCUAA was 0.00609 ± 0.0034; that for CUUAAGCUCUCCAUCUACUGGGUUACCUAA was 0.0739 ± 0.014. For CUUAUCCUCAGGUUCUACUGGGUUACCUAA, the “pre-steady-state target cleavage rate” value was determined as 0.134 ± 0.029.

Regarding CUUAAGGAGACCUAGUACUGGUUACCUAA, the “pre-steady-state target cleavage rate” value was less than 0.0001. Regarding CUUAAGCUCUGGAUGAUCUGGGUUACCUAA, the “pre-steady-state target cleavage rate” value worked out at 0.0295 ± 0.013. In the case of CUUAUCCUCUGGAUCUUCUGCGUUACCUAA, the “pre-steady-state target cleavage rate” value was 0.0103 ± 0.0033. As to CUUAACCUCUGGAUCUACUGGGGUACCUAA, the “pre-steady-state target cleavage rate” value is 0.00532 ± 0.0045. The value for CUUAUGCUCUGCAUCUACUGGGUUACCUAA was 0.0742 ± 0.014; that for CUUAAGCUCUGGAUCUACUGGGCUACCUAA was 0.0256 ± 0.01. For CUUAACCUCUGGAUCUACUGGGUUACUAA the value was 0.185 ± 0.044. In the case of “CUUAAGGAGAGGAUCUACUGGGUUACCUAG [g2:g20:cont:t1G]”, the “pre-steady-state target cleavage rate” value worked out at 0.00782 ± 0.0038. As for CUUAAGGUCUGGAUCUACUGAGUUACCUAA, the “pre-steady-state target cleavage rate” value was 0.0245 ± 0.0086. As to CUUAAGGAGUGGAUCUACUGGGUAACCUAA, the “pre-steady-state target cleavage rate” value stood at 0.0142 ± 0.0077. For CUUAACCAGAGGAUCUACUGGGUUACCUAA the value was 0.0108 ± 0.0053; for CUUAACGUCUGCAUCUACUGGGUUACCUAA, 0.126 ± 0.02. Consider CUUAAGCUCAGGUUCUACUGGGUUACCUAA, for which the “pre-steady-state target cleavage rate” value was 0.0695 ± 0.021. As for CUUAUCCUCUGGAUCAACUGGGUUACGUAA, the “pre-steady-state target cleavage rate” value came out at 0.0127 ± 0.0051. As for CUUAUCCUCUGGUUCUACUGGGUUACCUAA, the “pre-steady-state target cleavage rate” value came to 0.469 ± 0.1. Take CUUAAGGUCUGGAUCUACGGGUUACCUAA: the “pre-steady-state target cleavage rate” value worked out at 0.0103 ± 0.005. With CUUAAGCUCUGGAGUCUACUGGGUUACCUAA, the “pre-steady-state target cleavage rate” value is 0.071 ± 0.018. CUUAUCCUCUGGAUCUUCUGGGUUAGCUAA: the “pre-steady-state target cleavage rate” value is 0.0465 ± 0.014. For CUUAUCCUACUGGAUCUACUGGGUUACCUAA the value was 0.0814 ± 0.019; for CUUAUCGUCUGGAACUACUGGGUUACCUAA, 0.072 ± 0.012; for CUUAAGGUCUGGAUCAACUGGGAUACCUAA, 0.011 ± 0.0062. Take CUUAAGCUCUGGAUCUACUGGGUCACCUAA: the “pre-steady-state target cleavage rate” value came to 0.00519 ± 0.0039. For CUUAAGGACUGGAUCUACUGGGAUUACCUAA the value was 0.0116 ± 0.01; for CUUAAGGACUGGAUCUAGUGGGUUACGUAA, 0.00654 ± 0.0057. With CUUAACCUCUGGAACUACUGGGUAACCUAA, the “pre-steady-state target cleavage rate” value worked out at 0.06 ± 0.024.

On to CUUAUCGUGUGGAUCUACUGGGUUACCUAA, for which the “pre-steady-state target cleavage rate” value amounted to 0.0734 ± 0.013. For CUUAAGGUGUGGAUCUAGUGGGUUACCUAA, the “pre-steady-state target cleavage rate” value is 0.026 ± 0.0078.

For the sequence CUUAAGCUCUGGAUCUACUGCGUUACCUUA, the “pre-steady-state target cleavage rate” value was found to be 0.00818 ± 0.0052. For the sequence CUUAAGCUCUGGAUCUACUGGGUAACCAAA, the “pre-steady-state target cleavage rate” value is 0.00645 ± 0.006. With CUUAAGGUCUGGAUCUACAGGGUAACCUAA, the “pre-steady-state target cleavage rate” value turned out to be 0.0435 ± 0.013. On to CUUAAGGAGAGGAUCUACUGGGUUUACCUAA, for which the “pre-steady-state target cleavage rate” value amounted to 0.0063 ± 0.0027. As to CUUAACCUCUGGUUGUACUGGGUUACCUAA, the “pre-steady-state target cleavage rate” value was found to be 0.106 ± 0.019. Regarding CUUAACCUCUGGAUCUGCUGGGUUACCUAA, the “pre-steady-state target cleavage rate” value amounted to 0.097 ± 0.028. The value for CUUAACCACUGGAUCUACUGGGUAACCUAA was 0.0323 ± 0.0092; that for CUUAAGGAGUGGAUCGACUGGGUUACCUAA was 0.0242 ± 0.0089; that for CUUAAGGACACCAUCUACUGGGUUACCUAA was 0.00379 ± 0.0035. Consider CUUAAGCUCUGGAUCUACUGGGUAAGCUAA, for which the “pre-steady-state target cleavage rate” value was found to be 0.0647 ± 0.018.

On to CUUAAGCUCUCGAUCUACUGCGUUACCUAA, for which the “pre-steady-state target cleavage rate” value was found to be 0.0193 ± 0.0068. For CUUAACCUCUGGAACUACUGGGUUACCUAA the value was 0.133 ± 0.03. For CUUAUCCUCUGGAUGUACUGGGUUACCUUA, the “pre-steady-state target cleavage rate” value was 0.09 ± 0.022.

In the case of CUUAAGGAGUCGAUCUACAGGGUUACCUAA, the “pre-steady-state target cleavage rate” value worked out at 0.0107 ± 0.004. For CUUAAGGUCUGGAUCUACUGGGUCACCUAA the value was 0.0232 ± 0.0097; for CUUAAGGUCUGCAUCUACAGGGUUACCUAA, 0.0777 ± 0.014.
